Hit rate of the full screen: of about 46,000 compounds, about 60 (0.1%) were called active. Not shown: some 3% with an inconclusive outcome. Calls come from the whole dose curve; as a rule, active = well fitted inhibition curve with a large enough effect; inconclusive = small, poorly fitted or top-dose-only effect; inactive = no such curve, though single readings can be large or run the other way. This is one part of the list.
Experiment: Primary qHTS assay for Inhibitors of ovarian cancer metastasis using an organotypic tumor microenvironment (TME) model.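 For activity change, negative = inhibition: plate controls were DMSO wells for no effect and tomatine positive control wells for full effect.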 Note: nearly all actives have a fitted effect of over 65% in size.
Details: SKOV3ip1-GFP adhesion/invasion on 3D omental model, fluorescence; series mostly up to 45.8 µM; activity change, negative = inhibition: at the top concentration
In short: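 qHTS, 4-pt dose (0.36-46 umol/L); SKOV3ip1-GFP, 1,200 cells/well, no FBS; primary omental fibroblast/mesothelial co-culture 48 h pre-grown; 2 h RT + 16 h 37 C; PBS wash, 4% PFA; GFP count 488/509 nm.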

Activity change, negative = inhibition, inactive:
CCOc1ccccc1NS(=O)(=O)c1ccc2c(c1)CC(C)N2C(=O)C1CCC1 (stereo unspecified) 2.3%
CCOc1cc(C2CC(=O)Nc3cc4c(cc32)OCCO4)ccc1O (stereo unspecified) -2.26%
COC(=O)C(C)Sc1nc2c(cnn2-c2ccc(F)cc2)c(=O)[nH]1 (stereo unspecified) -4.91%
CCOc1ccc(OCC)c(NS(=O)(=O)c2c(C(=O)N3CCCCCC3)c(C)n(C)c2C)c1 5.15%
O=C(CSc1nnc(-c2ccccc2)c(-c2ccccc2)n1)NC1CCCC1 3.13%
Fc1ccc(-n2cc(-c3ccccc3)c3c(NCCc4ccccc4)ncnc32)cc1 -15.7%
COc1ccc(C)cc1NC(=O)C1COc2ccccc2C1 (stereo unspecified) 6.17%
COc1ccc(NC(=O)C2=CC(c3ccc4c(c3)OCO4)=NS(=O)(=O)N2C)cc1 -3.75%
COc1ccc(C2c3c(oc4ccc(C)cc4c3=O)C(=O)N2CCCN2CCOCC2)cc1OC (stereo unspecified) -5.74%
CCOC(=O)C1CCCN(S(=O)(=O)c2cc3c4c(c2)CC(=O)N4CCC3)C1 (stereo unspecified) 1.34%
COc1cccc(CNC(=O)c2oc3c(c2C)-c2nn(Cc4cccc(Cl)c4)cc2CC3)c1 -1.47%
COc1ccc(S(=O)(=O)NCC(c2ccc(N(C)C)cc2)N2CCCC2)cc1 (stereo unspecified) 3.93%
Cc1ccc(-n2c(=O)c3c4c(sc3n(Cc3ccccc3C)c2=O)CCC4)cc1C -11.2%
Cc1ccc(NC(=O)Nc2nnc(N(C)C3CCCCC3)s2)c(Cl)c1 -1.72%
Cc1cc(C)c(/C=C/c2onc(C)c2S(=O)(=O)N2CCC(C(=O)N(C)Cc3ccccc3)CC2)c(C)c1 -3.96%
Clc1cccc(-n2cc(-c3ccccc3)c3c(N4CCCCC4)ncnc32)c1 8.35%
Cc1ccccc1C(=O)Nc1nc2nc(-c3ccccc3)cc(=O)n2[nH]1 5.52%
O=C(Nc1ccc2c(c1)OCO2)c1cc(-c2ccc(Br)cc2)on1 2.75%

outcome, inactive:
COc1cccc(C(=O)NCc2cn3ccccc3n2)c1
Cc1ccc2c(=O)cc(C(=O)Nc3ccc(S(=O)(=O)N(C)Cc4ccccc4)cc3)oc2c1C
O=C(NCCCO)C(=O)NCC(c1ccc2c(c1)OCO2)N1CCOCC1 (stereo unspecified)
CCOc1ccc(C(=O)c2cn(CC(=O)Nc3ccc(F)cc3)c3cc4c(cc3c2=O)OCCO4)cc1
CCc1ccc(NC(=O)Cn2c(=O)n(CCCCC(=O)NCCc3ccccc3)c(=O)c3ccccc32)cc1
CCC(C)(C)NC(=O)C1CCN(S(=O)(=O)c2c(C)noc2/C=C/c2ccc(C)cc2)CC1
COc1ccc(-c2noc(CC(=O)Nc3ccc(Br)cc3C)n2)cc1
CCOC(=O)c1c(NC(=O)COc2c(C)cc(Cl)cc2Cl)sc2c1CCCC2

Source: PubChem BioAssay AID1963576 (National Center for Advancing Translational Sciences (NCATS), 2024)
